According to PubChem BioAssay AID1240 (Sanford-Burnham Center for Chemical Genomics, 2008):
About 800 (1.6%) of roughly 50,000 compounds showed an effect of 50% or more. Some of the results follow.

Target: Bcl-2-like protein 10 (Homo sapiens) (UniProt Q9HD36)
Assay: Phenotype converters, Bcl-B/TR3 peptide binding displacement, primary biochemical FP (AID 1240);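 note: 0% = Bcl-B with tracer peptide and DMSO and 100% = tracer peptide lacking Bcl-B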
Details: GST-Bcl-B / FITC-TR3 peptide fluorescence polarization; stronger effect = higher value; compound at 3.75 mg/L

Chain of UniProt Q9HD36 (Q9HD36 whole entry, looked up): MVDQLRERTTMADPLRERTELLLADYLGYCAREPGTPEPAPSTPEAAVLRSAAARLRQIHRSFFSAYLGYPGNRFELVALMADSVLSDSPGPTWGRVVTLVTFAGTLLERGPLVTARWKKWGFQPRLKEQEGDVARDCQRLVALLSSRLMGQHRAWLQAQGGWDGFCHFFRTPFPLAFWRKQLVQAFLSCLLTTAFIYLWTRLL

| SMILES | displacement [%] |
| --- | --- |
| COc1ccc(/C=C2\SC(=S)N(CCC(=O)Nc3ccccc3C)C2=O)cc1OC | 15.4 |
| Cc1cc(OCC(=O)Nc2cc(Cl)ccc2C)ccc1Cl | 12.7 |
| COC(=O)Oc1ccc2c(=O)c(-c3ccccc3OC)coc2c1 | -5.1 |
| O=C(O)CCCNC(=O)c1ccccc1NC(=O)c1ccccc1 | -3.9 |
| Clc1ccc(COCc2nc3ccccc3n2Cc2ccc(Cl)cc2)cc1 | 3.4 |
| COc1cccc(C2=NN(C(=O)COc3ccccc3)C(O)(C(F)(F)F)C2)c1 (stereo not given) | 0.7 |
| CCOc1cccc(C(=O)Nc2nnc(COc3ccc(Br)cc3)s2)c1 | 5.4 |
| O=C(O)c1ccc(Oc2ccc(S(=O)(=O)c3ccc(Cl)cc3)cc2)cc1 | 0.6 |
| O=C(O)CCn1c(SCCc2ccccc2)nc2ccccc21 | 3.2 |
| Cc1ccc(N2C(=O)C3C(C2=O)C2C=CC3C23CC3)cc1 (stereo not given) | 7.8 |
| CCOC(=O)c1[nH]c2c(CC)cccc2c1CCN1C(=O)c2ccccc2C1=O | 25.7 |
| O=[N+]([O-])c1ccc(OCCS(=O)(=O)c2ccccc2)c(OCCS(=O)(=O)c2ccccc2)c1 | 6.6 |
| COC(=O)C1=C(C)NC(=O)N(C(C)=O)C1c1cccc([N+](=O)[O-])c1 (stereo not given) | 8.6 |
| CC1(C)CC(=O)c2sc(NC(=O)CN3CCCCC3)nc2C1 | 1.7 |
| CCOc1ccc2c(=O)c(-c3ccccc3OC)coc2c1 | 12.8 |
| C=CCn1cc(F)c(=O)n(CC(C)C)c1=O | -19.5 |
| Cc1onc(-c2ccccc2Cl)c1C(=O)N1CCC(C(O)(c2ccccc2)c2ccccc2)CC1 | -4.1 |
| O=C(Nc1ccc2c(c1)OCCO2)c1ccccc1[N+](=O)[O-] | 1.6 |
| O=C(N/N=C/c1ccc(Br)cc1)c1cc(C23CC4CC(CC(C4)C2)C3)[nH]n1 | -6.6 |
| Cc1c(NC(=O)c2ccco2)cccc1-c1nc2ncccc2o1 | -2.5 |
| Cc1[nH]c2ccccc2c1C(=O)/C=C/c1ccc2c(c1)OCO2 | 7.7 |
| CC(NC(=O)C(=O)NC(C)C1COc2ccccc2O1)C1COc2ccccc2O1 (stereo not given) | -0.6 |
| O=[N+]([O-])c1ccc(OCc2ccccc2Cl)cc1 | -9 |
| Cc1nc2ccccc2n1CCC(C)C | 13.2 |

| SMILES | displacement [%] |
| --- | --- |
| O=C(Cc1ccc([N+](=O)[O-])cc1)N/N=C/c1cccnc1 | 3.9 |
| COc1ccc(CCNC(=O)CN(c2cccc([N+](=O)[O-])c2)S(=O)(=O)c2ccccc2)cc1OC | 1.7 |
| CC(C)CC(=O)NS(=O)(=O)c1ccc(NC(=O)c2ccco2)cc1 | 16.9 |
| C=C(C)Cn1c(-c2ccc(OC)c(OC)c2)n[nH]c1=S | -2.8 |
| NC(=O)c1ccccc1NC(=O)N1CCOCC1 | 13.1 |
| COc1cc(OC)cc(C(=O)Nc2cccc(Cl)c2Cl)c1 | 14.5 |
| O=C(CSc1ncccn1)NCc1ccccc1 | 4.5 |
| O=C1NC(c2ccccc2)=C(c2ccc3ccccc3n2)C(c2ccncc2)N1 (stereo not given) | 13.7 |
| O=c1c2c3c(sc2ncn1/N=C/c1c[nH]c2ccccc12)CCCC3 | -1.5 |
| Cc1ccc(/C=c2\sc3nnc(-c4ccccc4)n3c2=O)cc1 | -30.1 |
| C/C(=N\Nc1c(Cl)cc(Cl)cc1Cl)c1ccccn1 | -7 |
| O=C(Nc1ccccc1Br)C12CC3CC(CC(C3)C1)C2 | -0.7 |
| CCOC(=O)c1ccccc1NS(=O)(=O)c1cccs1 | 7.5 |
| CC1=C(C)CC2C(=O)C3=C(C(=O)C2C1)C1c2ccccc2C3c2ccccc21 (stereo not given) | -3.5 |
| COc1ccc(-n2nc3cc(C)c(NC(=O)COc4ccc(Cl)cc4C)cc3n2)cc1 | 2.8 |
| COc1ccc(OC)c(/C=N/NC(=O)CSc2ncccn2)c1 | 1.1 |
| O=C1NC(=O)N(c2ccc(Cl)cc2)C(=O)/C1=C/c1ccc(F)cc1 | 8.2 |
| Cc1ccc(Br)cc1S(=O)(=O)N1CCN(Cc2ccccc2)CC1 | -3.5 |
| CCc1ccc(NC(=O)CSc2nc3sc4c(c3c(=O)n2-c2ccccc2)CCCC4)cc1 | -13.8 |
| O=C(CCC(=O)OCC(F)(F)C(F)F)Nc1ccc(Cl)cc1Cl | 15.4 |
| Cc1ccc(NC(=O)c2ccccc2[N+](=O)[O-])c(C)c1 | 9 |
| COc1cc(/C=N/NS(=O)(=O)c2ccc3ccccc3c2)ccc1OCC(N)=O | 9.7 |
| COc1ccc(C2CC(=O)C3=C(C2)Nc2ccccc2NC3c2ccc([N+](=O)[O-])cc2)cc1 (stereo not given) | -5.3 |
| O=C(O)CN1C(=O)c2cccc3c(Br)ccc1c23 | 15.2 |

| SMILES | displacement [%] |
| --- | --- |
| O=C1NC(=O)C(=Cc2ccc(OCc3cccc4ccccc34)cc2)C(=O)N1 | 7 |
| COc1ccc(OCCNC(=O)c2ccccc2[N+](=O)[O-])cc1 | 6.4 |
| COc1ccc(OC)c(-c2nc(-c3ccccc3)c(-c3cccs3)[nH]2)c1 | 15.1 |
| COC(=O)C1=NN(C(=O)c2cccc(OC)c2)C(C)(O)C1 (stereo not given) | -5.7 |
| C=CCNC(=O)CN(c1ccc(OC)cc1)S(=O)(=O)c1ccc(OC)c(OC)c1 | 0.9 |
| Cc1ccc(NC(=O)C(=O)NCCC(C)C)c(C)c1 | 5.6 |
| COc1ccc(Br)cc1CN1CCN(Cc2cccnc2)CC1 | -18.6 |
| O=C(/C=C/Nc1cccc(O)c1)c1ccc(Br)cc1 | -2.9 |
| CCOc1ccc2c(c1)C(C)=CC(C)(C)N2C(=O)CN1C(=O)c2ccccc2C1=O | -5.7 |
| C=CCN1C(=O)/C(=C\c2cc(Br)c(OCc3ccc(F)cc3)c(OC)c2)SC1=S | 5.5 |
| N#Cc1ccccc1NC(=O)CC1Sc2ccc(C(F)(F)F)cc2NC1=O (stereo not given) | -10.4 |
| Nc1nc(-c2ccc(-n3nncc3-c3ccccc3)cc2)cs1 | -10.4 |
| CN(C)CC(Oc1ccc(Cl)cc1)C(=O)O (stereo not given) | 5.9 |
| O=C1C(Cl)=C(N2CCN(c3ccccc3)CC2)C(=O)N1c1cccc(Cl)c1 | -7.1 |
| CCNC(=S)Nc1cccc(Cl)c1 | -5.9 |
| COC(=O)Cn1cc(/C=C2\C(=O)NC(=O)N(c3cc(C)cc(C)c3)C2=O)c2ccccc21 | -4.6 |
| Oc1ccccc1-c1cc(-c2ccccc2Cl)[nH]n1 | 0.5 |
| O=C(NCCN1CCOCC1)c1cc2nc(-c3ccc([N+](=O)[O-])cc3)cc(C(F)(F)F)n2n1 | 5.7 |
| COc1ccccc1C1C(C(C)=O)=C(O)C(=O)N1CCN1CCNCC1 (stereo not given) | -10.3 |
| C/C(=N\NC(=O)c1ccc(N2CCCC2=O)cc1)c1ccccc1 | 5.4 |
| CCOc1ccccc1NC(=O)C(=O)NCC(C)C | -0.6 |
| CC(=O)C12c3ccccc3C(c3ccccc31)C1C(=O)N(c3cc(C(F)(F)F)ccc3Cl)C(=O)C12 (stereo not given) | 12.6 |
